The labels stand for the following.
B1: IL-17RA-IL-17A complex, pre-assembled on the SPR chip (complex)
chain 1: not shown
chain 2: not shown
modifications: biotin on the C-terminal BirA ligase tag

Assay [1] addresses T1, IL-17RC extracellular domain, soluble (without BirA ligase tag) (UniProt Q8NAC3 21-538).
T1 sequence: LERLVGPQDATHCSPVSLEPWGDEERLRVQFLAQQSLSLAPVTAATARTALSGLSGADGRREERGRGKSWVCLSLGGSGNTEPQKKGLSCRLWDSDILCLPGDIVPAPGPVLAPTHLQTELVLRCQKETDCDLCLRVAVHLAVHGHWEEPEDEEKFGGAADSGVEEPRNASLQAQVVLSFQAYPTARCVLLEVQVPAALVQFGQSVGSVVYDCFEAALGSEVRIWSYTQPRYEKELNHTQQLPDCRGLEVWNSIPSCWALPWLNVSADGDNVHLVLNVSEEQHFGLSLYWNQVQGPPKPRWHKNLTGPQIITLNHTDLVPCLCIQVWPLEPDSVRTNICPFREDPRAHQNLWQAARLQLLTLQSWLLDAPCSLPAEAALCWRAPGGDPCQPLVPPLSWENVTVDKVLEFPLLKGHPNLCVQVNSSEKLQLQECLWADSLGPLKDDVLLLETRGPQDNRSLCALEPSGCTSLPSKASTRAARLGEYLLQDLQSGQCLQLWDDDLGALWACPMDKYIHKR
Kind of assay: SPR.

Assay [2] concerns the target B1. Kind of assay: SPR. On the technique in general: In SPR one partner is held on a chip, and binding of the other changes the refractive index at the surface.

The text below walks through data of publication PMC2783927 (Nature immunology, 2009).

In general, Kd refers to the free concentration of one partner at which half of the binding sites on the other are occupied at equilibrium, for simple one-to-one binding. Low values mean a tighter complex, high ones a looser complex.

As to B1, in assay [1], the dissociation constant (Kd) worked out at 174 nM.

B2: IL-17RA extracellular domain, soluble (without BirA ligase tag) (receptor)
chain: not shown
Regarding B2, in assay [2], the Kd worked out at 3.1 µM.
